# Assay results published in PubChem BioAssay (NCATS).
# Where “and” joins values, the source holds several entries; their conditions need not be identical. Equal entries are not always repeated. Inconclusive results, whose numbers are uncertain, are shown with a selection of clear calls. Potencies of inconclusive entries are doubtful fits and often do not repeat. Calls of active or inactive are those of the source. Calls come from the whole dose curve; as a rule, active = well fitted curve in the direction sought with a large enough effect; inconclusive = small, poorly fitted or top-dose-only effect, or another doubt; inactive = no such curve, though single readings can be large; an effect the other way counts as inactive or inconclusive.
# Assays:
# [1] = qHTS for Inhibitors of Plasmodium falciparum (DD2) proliferation (AID 504314);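 for activity, negative = inhibition: parasite DNA measured by SYBR Green fluorescence after red cell lysis; plate controls were DMSO vehicle for no effect and artemisinin wells for full effect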; settings: P. falciparum Dd2 in erythrocytes, SYBR Green growth, 72 h; activity, negative = inhibition: at 6.11 µM (top of the series)
# Procedure, shortened: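 Fluorescence read-out (ex 485/em 535 nm) of SYBR Green-stained parasite DNA quantifies intraerythrocytic growth. Cultures at 0.3% parasitemia and 2.5% hematocrit were treated for 72 h; data normalized to DMSO and 0.29 uM artemisinin wells.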
# [2] = qHTS for Inhibitors of Plasmodium falciparum (7G8) proliferation (AID 504316); note: nearly all actives have a fitted effect of over 65% in size;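 for activity change, negative = inhibition: 0% = DMSO vehicle and -100% = 0.29 µM artemisinin full kill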; settings: P. falciparum 7G8 in erythrocytes, SYBR Green DNA, 72 h; activity change, negative = inhibition: at 6.7 µM (top of the series)
# Procedure, shortened: (§1)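 Erythrocytes infected with P. falciparum line (0.3% parasitemia, 2.5% hematocrit final) incubated with compounds 72 h at 37 °C, 5% CO2; SYBR Green lysis buffer added, fluorescence read next day. Normalized to 0.29 uM artemisinin and DMSO.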
# [3] = qHTS for Inhibitors of Plasmodium falciparum (HB3) proliferation (AID 504318); note: nearly all actives have a fitted effect of over 60% in size;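 for activity change, negative = inhibition: 0% = DMSO vehicle and -100% = artemisinin control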; settings: P. falciparum HB3 in erythrocytes, SYBR Green DNA, 72 h; activity change, negative = inhibition: at 7.21 µM (top of the series)
# Procedure, shortened: as §1
# [4] = qHTS for Inhibitors of Plasmodium falciparum (GB4) proliferation (AID 504315); note: nearly all actives have a fitted effect of over 50% in size;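 for activity change, negative = inhibition: 0% = DMSO vehicle and -100% = 0.29 µM artemisinin control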; settings: P. falciparum GB4 in erythrocytes, SYBR Green DNA, 72 h; activity change, negative = inhibition: at 6.7 µM (top of the series)
# Procedure, shortened: as §1
# Potency is the fitted concentration of half-maximal effect; tags give direction and shape of the fitted curve.
smiles,measurement,setting,value
COC(=O)C1=C(C(=O)OC)[C@@H]2N(C)c3ccccc3[C@@]23C[C@@H](CO)N(C(=O)c2ccc(Br)cc2)C3=N1,Potency,[1],inactive
CC(C)=CCN1C(=O)[C@]2(O[C@H](C)CC3=CCCC32)c2c(Br)cccc21 (stereo not given in full),Potency,[1],"inconclusive: 4.24 µM [inhibitor, single point]"
CC(=O)C1=C(C)N(Cc2ccccc2)C(=O)NC1c1ccco1 (stereo not given),Potency,[1],inactive
COc1ccc(CN2C=C3C(=O)C(C)(OC(=O)C4CCCC4)C(=O)C=C3C=C2c2ccsc2)cc1 (stereo not given),Potency,[1],"inconclusive: 4.24 µM [inhibitor, single point]"
same,"activity, negative = inhibition",[1],inactive: -5.43% [at 1.12 µM]
same,Potency,[2],"inconclusive: 4.78 µM [inhibitor, single point]"
same,Potency,[3],"inconclusive: 2.33 µM [inhibitor, single point] and inconclusive: 3.38 µM [inhibitor, partial curve, poor fit]"
CC1(OC(=O)CCc2ccccc2)C(=O)C=C2C=C(c3ccc(C#N)cc3)N(CC3CC3)C=C2C1=O (stereo not given),Potency,[1],"inconclusive: 4.24 µM [inhibitor, partial curve, poor fit]"
same,"activity, negative = inhibition",[1],inactive: -3.92% [at 1.12 µM]
same,Potency,[2],"inconclusive: 1.69 µM [inhibitor, single point] and inconclusive: 1.51 µM [inhibitor, partial curve]"
same,Potency,[3],"inconclusive: 4.26 µM [inhibitor, partial curve, poor fit] and inconclusive: 1.69 µM [inhibitor, single point]"
COC(=O)NC(c1ccccc1)c1c[nH]c2ccccc12 (stereo not given),Potency,[1],inactive
C=CCN1C(=O)[C@]2(OCCC=C[C@H]2C)c2c(Br)cccc21,Potency,[1],inactive
CCOC(=O)C1(C(=O)OCC)Cc2ccc(C(C)=O)cc2C1,Potency,[1],inactive
same,Potency,[4],inactive
COC(=O)CCCC1=CC2=CC(=O)C(C)(OC(=O)c3cccs3)C(=O)C2=CN1C1CCCC1 (stereo not given),Potency,[1],"inconclusive: 2.12 µM [inhibitor, partial curve, poor fit]"
CCN1C(=O)[C@@H]2[C@H]3[C@H](O)[C@H](O)CC(=NOC[C@@H](O)[C@H]4O[C@@H]5OC(C)(C)O[C@H]5[C@@H]4O)[C@@H]3CC[C@H]2C1=O,Potency,[1],inactive
COC/C=C/C1=CC2=CC(=O)C(C)(OC(=O)c3cnc4ccccc4n3)C(=O)C2=CN1CC1CC1 (stereo not given),"activity, negative = inhibition",[1],inactive: 1.26% [at 1.12 µM]
CC1(OC(=O)C2CCCC2)C(=O)C=C2C=C(c3ccsc3)N(C3CC3)C=C2C1=O (stereo not given),Potency,[1],"inconclusive: 1.34 µM [inhibitor, single point]"
same,"activity, negative = inhibition",[1],inactive: -0.441% [at 1.12 µM]
same,Potency,[2],"inconclusive: 1.2 µM [inhibitor, partial curve] and inactive"
same,Potency,[3],inactive
CC1(OC(=O)C2CCCC2)C(=O)C=C2C=C3CCCN3C=C2C1=O (stereo not given),Potency,[1],"inconclusive: 1.06 µM [inhibitor, partial curve, poor fit]"
same,"activity, negative = inhibition",[1],inactive: 0.418% [at 1.12 µM]
COc1ccc(-c2nc3c(c4c2C[C@H](c2ccccc2)OC4)CN(C(=O)c2cccnc2)CC3)c(C)c1,Potency,[1],"inconclusive: 4.24 µM [inhibitor, single point]"
same,"activity, negative = inhibition",[1],inactive: 2.56% [at 1.12 µM]
same,Potency,[2],active: 1.51 µM and active: 1.69 µM
same,Potency,[3],"inconclusive: 2.62 µM [inhibitor, partial curve, poor fit] and inconclusive: 1.69 µM [inhibitor, single point]"
C=CCOC(=O)NC(CC(=Nc1ccc(OC)cc1)C(=O)OC)c1ccccc1 (stereo not given),Potency,[1],inactive
COC(=O)C1(C(=O)OC)C[C@@H]2CON=C2[C@@H]1c1ccccc1,Potency,[1],inactive
COC(=O)C1=C(C)N(Cc2ccccc2)C(=NCCCCO)NC1c1cccc(F)c1 (stereo not given),Potency,[1],"inconclusive: 3.78 µM [inhibitor, partial curve, poor fit]"
same,Potency,[4],"inconclusive: 1.35 µM [inhibitor, partial curve, poor fit]"
CCN1C(=O)N(S(=O)(=O)c2ccc(C)cc2)[C@@H](c2ccccc2)C(C(=O)OC)=C1C,"activity, negative = inhibition",[1],inactive: 3.15% [at 1.12 µM]
C=C(CCN1C=C(C(=O)OCC)C(c2ccccc2)NC1=O)c1ccccc1 (stereo not given),Potency,[1],inactive
CCCCC1=CC2=C(c3ccco3)C(=O)C(C)(OC(=O)c3ccc(OC)cc3)C(=O)C2=CN1c1ccc(OC)cc1 (stereo not given),Potency,[1],"inconclusive: 4.24 µM [inhibitor, single point]"
same,"activity, negative = inhibition",[1],inactive: -0.773% [at 1.12 µM]
same,Potency,[2],"inconclusive: 1.51 µM [inhibitor, single point]"
same,Potency,[3],"inconclusive: 2.13 µM [inhibitor, single point] and inactive"
COC(=O)C1(C(=O)OC)Cc2conc2[C@@H]1c1ccccc1,Potency,[1],"inactive and inconclusive: 26.7 nM [inhibitor, full curve, poor fit]"
same,"activity change, negative = inhibition",[4],inconclusive: -17.4% [inhibitor]
COC(=O)CCCC1=CC2=CC(=O)C(C)(OC(=O)c3cccs3)C(=O)C2=CN1Cc1ccc2c(c1)OCO2 (stereo not given),"activity, negative = inhibition",[1],inactive: 1.86% [at 1.12 µM]
same,Potency,[4],inactive
CCCCc1cc2c(cn1)=C(OC(=O)CCC(=O)OC)C(C)(OC(=O)CC)C(=O)C=2 (stereo not given),Potency,[1],"inconclusive: 3.78 µM [inhibitor, single point]"
same,"activity, negative = inhibition",[1],inactive: -0.996% [at 1.12 µM]
same,Potency,[4],active: 1.69 µM
same,Potency,[2],active: 1.69 µM
same,Potency,[3],"inconclusive: 4.26 µM [inhibitor, single point] and inconclusive: 1.69 µM [inhibitor, single point]"
CCN1C(=NCCCOC(C)C)NC(c2ccccc2)C(C(=O)OC)=C1C (stereo not given),Potency,[1],"inconclusive: 3.78 µM [inhibitor, partial curve, poor fit]"
C=C(C)C(=O)C=CC=Cc1ccccc1,Potency,[1],"inconclusive: 4.24 µM [inhibitor, partial curve, poor fit]"
same,Potency,[4],"inconclusive: 0.169 µM [inhibitor, partial curve, poor fit]"
